These results are taken from article PMC7819943, “Rice protein-binding microarrays: a tool to detect cis-acting elements near promoter regions in rice”.

This is one part of the list.

The assay concerns the target T1, OsWOX13 (Oryza sativa, UniProt Q5QMM3 1-267).
T1 sequence: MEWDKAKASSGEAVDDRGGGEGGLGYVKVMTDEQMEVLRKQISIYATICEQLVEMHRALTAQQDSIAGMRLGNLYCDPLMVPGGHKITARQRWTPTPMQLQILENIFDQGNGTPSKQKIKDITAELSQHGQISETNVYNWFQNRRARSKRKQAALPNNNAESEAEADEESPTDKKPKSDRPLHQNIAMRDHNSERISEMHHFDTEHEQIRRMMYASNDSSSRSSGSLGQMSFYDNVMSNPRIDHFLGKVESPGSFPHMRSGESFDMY
Nature of the assay: protein-binding microarray (RPBM); PBS, 2% BSA, 51.3 ng/ul salmon testes DNA, 50 uM zinc acetate, 200 nM TF, 25 C, 1 h; high values mean tight binding. To be noted: protein: recombinant; tags: N-terminal polyhistidine and DsRed monomer fusion (pET32a); label: CyDye5-dUTP incorporated in the synthesized complementary strand; 3' TTTTT single-stranded linker to array surface; dsDNA, one strand shown. Summed up: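 Ni–NTA purification followed expression in E. coli BL21-CodonPlus of transcription factors fused N-terminally to a polyhistidine tag and DsRed. At 200 nM in PBS with 2% BSA, salmon testes DNA and 50 µM zinc acetate, the protein was incubated for 1 h at 25 °C with a custom Agilent array that had been primer-extended with Cy5-dUTP and blocked with 2% BSA. After washing, the array was read on an Axon 4000B scanner. The binding signal is per-feature fluorescence intensity in arbitrary units.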
For “TTTTAGGTTAATTACTTCTATTGGTCAACTCAATATGCAGCGGAGTCACCTAGTGCAG”, the binding signal is 5660 fluorescence intensity (a.u.).

Turning to “AAATAATTTATGAATAAAACTTTTATCTACGTGTTCTTAACGGAGTCACCTAGTGCAG”, the binding signal was 9010 fluorescence intensity (a.u.).

With “TTGCTAATGACGGATTAATTAGGCTTAATAAATTCGTCTCCGGAGTCACCTAGTGCAG”, the binding signal is 33900 fluorescence intensity (a.u.).

Take “GGAAACATATAAATGGGAAACTAACATGTTAAGATTATCCCGGAGTCACCTAGTGCAG”: the binding signal was 4120 fluorescence intensity (a.u.).

Regarding “TACTTAATTAAGACTACACTAATGCATGATTCGTTTTGCTCGGAGTCACCTAGTGCAG”, the binding signal is 35100 fluorescence intensity (a.u.).

Regarding “GGATAGACAGTTTCCTTTGATCATGTGACGTTTGATTATTCGGAGTCACCTAGTGCAG”, the binding signal was 5900 fluorescence intensity (a.u.).

For “CCATTACTAAATTAAATAGGCCAGATTCTCTCTCACACCCCGGAGTCACCTAGTGCAG”, the binding signal was 5660 fluorescence intensity (a.u.).

On to “CGGGATAGACAGATGGTGGCTCCGTAATTTTGAATCCCTTCGGAGTCACCTAGTGCAG”, for which the binding signal was 22200 fluorescence intensity (a.u.).

In the case of “GCCATAATTGGTAGGAACACCTGCAAGAAAACATCATATGCGGAGTCACCTAGTGCAG”, the binding signal was 34200 fluorescence intensity (a.u.).

As for “TTAGAAAATTGATCGAATTTCGAGCTAACTAACATCAAATCGGAGTCACCTAGTGCAG”, the binding signal was 3900 fluorescence intensity (a.u.).

As to “ATCTGAACAGGCAGTCAATTTGGATTCGTAGTACTAGAAACGGAGTCACCTAGTGCAG”, the binding signal was 3280 fluorescence intensity (a.u.).

For the sequence “GTGCTAATATAATTTAAATAACTAGTTTGACGGACAAATCCGGAGTCACCTAGTGCAG”, the binding signal was 10800 fluorescence intensity (a.u.).

Turning to “TCTAATTGGCTTACTTAATATGATTCGATCCTACAACCTCCGGAGTCACCTAGTGCAG”, the binding signal is 53700 fluorescence intensity (a.u.).

With “CATCCTTAATCCATCAATTTATATTACTATTATTATTCCACGGAGTCACCTAGTGCAG”, the binding signal was 5450 fluorescence intensity (a.u.).

On to “TTCGAATCTCTGATTGGGAGTTCAGGTCAGAGACGTTCAGCGGAGTCACCTAGTGCAG”, for which the binding signal is 14700 fluorescence intensity (a.u.).

In the case of “ATGTAAATTTTGGAGGAAATTTAACCTCATGAGTCTCTCTCGGAGTCACCTAGTGCAG”, the binding signal was 8190 fluorescence intensity (a.u.).

For the sequence “ACAAATAGAATTGCTGATGAGAGCTTAAACATTATTGCACCGGAGTCACCTAGTGCAG”, the binding signal was 8840 fluorescence intensity (a.u.).

For the sequence “ATGACGTGATTGACGGCAGGGTTGTTGGACGGCAGCCTTTCGGAGTCACCTAGTGCAG”, the binding signal is 48300 fluorescence intensity (a.u.).

For “TCATAAATTAATAGCTCCCTATTAATTTAATTCTAAAATTCGGAGTCACCTAGTGCAG”, the binding signal was 13900 fluorescence intensity (a.u.).

In the case of “CAGATAGGCGGAAAATTGATTAAAGTTTGATGAAATAGTCCGGAGTCACCTAGTGCAG”, the binding signal was 27500 fluorescence intensity (a.u.).

Consider “AAATATAAAATATTTTAATTAGATGGAATACATCGTTATACGGAGTCACCTAGTGCAG”, for which the binding signal was 5450 fluorescence intensity (a.u.).

As for “CAAATTACTAAAGCTAAAATATATTTAATTTATTGTACATCGGAGTCACCTAGTGCAG”, the binding signal is 3280 fluorescence intensity (a.u.).

As to “TTTCCATTAATAAATTGAAACATATTGAACTAGATCGTTCCGGAGTCACCTAGTGCAG”, the binding signal was 15600 fluorescence intensity (a.u.).

Consider “AAAATGATTTTATAATTTCTGGCAGGTAGCAATAATTGGCCGGAGTCACCTAGTGCAG”, for which the binding signal was 23500 fluorescence intensity (a.u.).

In the case of “GTAGATTAGGAGGTGAAAATGAAGGTGCAAGTAGAGGACTCGGAGTCACCTAGTGCAG”, the binding signal was 3620 fluorescence intensity (a.u.).

Turning to “CAATAATTAGAGTAATCTAATAGTACTACTACCACAGTAGCGGAGTCACCTAGTGCAG”, the binding signal was 20400 fluorescence intensity (a.u.).

Consider “AACATCCGCTTGATTACCAAACTCGCTTAGCAAAACTTGGCGGAGTCACCTAGTGCAG”, for which the binding signal was 4870 fluorescence intensity (a.u.).

In the case of “TATATATATATATATATATATATATATATATATATGTATGCGGAGTCACCTAGTGCAG”, the binding signal was 12400 fluorescence intensity (a.u.).

For the sequence “CATGAACCTGTTACTTAATTATAGATAGCACTCATGAAGCCGGAGTCACCTAGTGCAG”, the binding signal is 4510 fluorescence intensity (a.u.).

On to “AAATAAGATGTGATTAATGAGACAAATAGATATATATCGTCGGAGTCACCTAGTGCAG”, for which the binding signal was 5020 fluorescence intensity (a.u.).

On to “GGTTAGATTTAAATGTTGCAGTGGGGTTTTCGATGGTGTTCGGAGTCACCTAGTGCAG”, for which the binding signal was 9930 fluorescence intensity (a.u.).

Regarding “CTTTGACAAGTTCTGGGAACTGGATATGCATTTTGAGAGTCGGAGTCACCTAGTGCAG”, the binding signal was 3980 fluorescence intensity (a.u.).

On to “GTCACAATTAAAGTTATTCGTAATAGACATTCTGGAGTTTCGGAGTCACCTAGTGCAG”, for which the binding signal is 7100 fluorescence intensity (a.u.).

Consider “GTTAATTAATTCCCCTCCGTTTCTCACGGCCTCATGGCCACGGAGTCACCTAGTGCAG”, for which the binding signal is 41200 fluorescence intensity (a.u.).

As for “TTAGTTTAATTAAATGTAACATTGAGTATATTTTGATAATCGGAGTCACCTAGTGCAG”, the binding signal was 16700 fluorescence intensity (a.u.).

Regarding “AATGACTGGAGTGAGTTAGCATGCTCGGATGGAGTGGCAACGGAGTCACCTAGTGCAG”, the binding signal is 6780 fluorescence intensity (a.u.).

Regarding “TTCCGGTATGACCATTGATTTGTATCCATTTGATAGGCTGCGGAGTCACCTAGTGCAG”, the binding signal was 6490 fluorescence intensity (a.u.).

As for “GAAAACAAATTATCGTCACGGATTGCCTCTGTCAGTGACGCGGAGTCACCTAGTGCAG”, the binding signal was 20600 fluorescence intensity (a.u.).

For “TATGATGCTAATTATCCACAATCTGAGATTTCTCGTCACTCGGAGTCACCTAGTGCAG”, the binding signal was 21100 fluorescence intensity (a.u.).

“CAGAATTAACTCGCTGTCAAAATTTTAGGTATAAGAACATCGGAGTCACCTAGTGCAG”: the binding signal was 8820 fluorescence intensity (a.u.).

Turning to “ATGATTGATTGCTTTTCCTAAATCCTAACCATGATGCTGTCGGAGTCACCTAGTGCAG”, the binding signal was 65000 fluorescence intensity (a.u.).

In the case of “ATTTCGCCTAATTAATCGATCATTAGCACATATGGGTTACCGGAGTCACCTAGTGCAG”, the binding signal was 13200 fluorescence intensity (a.u.).

Regarding “ATTAAACTTACCAAGATTGCATTGCACCAACCAATTAGTTCGGAGTCACCTAGTGCAG”, the binding signal was 4340 fluorescence intensity (a.u.).

“ACTAAACAAACTGACTAGACTCCTAGAACTAAGGAACTGGCGGAGTCACCTAGTGCAG”: the binding signal was 8250 fluorescence intensity (a.u.).

“AAATTCCTGATTTACAGTGATCCCAGTCACCCCGGTCTTCCGGAGTCACCTAGTGCAG”: the binding signal was 10000 fluorescence intensity (a.u.).

For the sequence “GATTTTGATAAATTTAATCGACTTCTTTAGAAACTTGTGTCGGAGTCACCTAGTGCAG”, the binding signal is 7930 fluorescence intensity (a.u.).

Consider “CACTAATTTACCAATTATTGAATTTCAGAATAATCAATTACGGAGTCACCTAGTGCAG”, for which the binding signal was 18800 fluorescence intensity (a.u.).

As for “AAGCGGCATTGATTGCAAATGATAGAACACATATTGAAATCGGAGTCACCTAGTGCAG”, the binding signal is 11700 fluorescence intensity (a.u.).

For “ATTGATAATTTGAAGAGGATTAGGTAAGAGCCATCAGGCTCGGAGTCACCTAGTGCAG”, the binding signal was 22800 fluorescence intensity (a.u.).

Take “AAAACGATTGATAGGGATTTGAAGTATCTCATTGGCAATTCGGAGTCACCTAGTGCAG”: the binding signal is 11500 fluorescence intensity (a.u.).

Consider “GTGAAAATGATTGGTCTTTTGATTAACATATGCAGCTTATCGGAGTCACCTAGTGCAG”, for which the binding signal is 53300 fluorescence intensity (a.u.).

In the case of “TGACTTGATTAATTGCTTCTATGTTTGGCACCCAATTAATCGGAGTCACCTAGTGCAG”, the binding signal is 44900 fluorescence intensity (a.u.).

As for “TACAATTATGATTTGCCTTCAAATTTGCATTTTCATATTTCGGAGTCACCTAGTGCAG”, the binding signal was 13500 fluorescence intensity (a.u.).

Regarding “GAATTGATTGCATGCAAACGGGGCAGCACACTGATACTCGCGGAGTCACCTAGTGCAG”, the binding signal is 38400 fluorescence intensity (a.u.).
